Experimental data reported in article PMC12040169 (PLOS Biology, 2025).
Like-named read-outs stand apart in the source and are kept apart here. The list shows a part of the results.

System: T1, C. trachomatis L2/434/Bu expressing GFP (CTL2-GFP)
T1 construct: L2/434/Bu GFP intracellular growth in HeLa cells
Set-up: species or system HeLa; C. trachomatis total inclusion area by high-content imaging, normalised to DMSO
Conditions: 28.5 h, 10 µM, inhibitor
Outline: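 Following bulk GFP and resorufin fluorescence reads, infected cells were fixed, Hoechst-stained and imaged on a high-content platform. Inclusion total area and number per well served as growth proxies; nuclei counts indicated host viability. MICs were derived as for the fluorescence assay.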

SMILES | % of control remaining (total inclusion area) | % of control remaining
Nc1nonc1OCC(COc1nonc1N)(COc1nonc1N)COc1nonc1N [CBK011044] | 123.35 | 
O=P(O)(O)CCCc1ccccc1 [CBK012021] | 85.4295 | 
CC1(C)CC(=O)C(C2(O)C(=O)Nc3ccc(Br)cc32)CO1 (centres unmarked) [CBK263410] | 109.345 | 
CN(C)C(=O)Oc1cc(CN2CCCC2)c2ccn(S(=O)(=O)c3ccccc3)c2c1 [CBK137151T] | 76.0582 | 
O=C(Nc1ccc2c(c1)OC(F)(F)O2)c1nn(Cc2ccc(-c3csnn3)cc2)c2ccccc12 [CBK047877] | 73.6247 | 
CC(C)CN(/C=N/c1nc(OC(=O)N(c2ccccc2)c2ccccc2)nc2c1ncn2C1CC(O)C(CO)O1)CC(C)C (centres unmarked) [CBK201170] | 109.912 | 
Cc1ccc(Cn2nc(C(=O)NCC3COc4ccccc4O3)c3ccccc32)cc1 (centres unmarked) [CBK047831] | 95.9186 | 
COc1ccc(OC(=O)Nc2nn(Cc3ccc(C#N)cc3)c3ccc(C)cc23)cc1 [CBK048654] | 99.292 | 
O=C(N[C@H]1CCN2C(=O)N(CCCl)C(=O)[C@@H]2C1)c1cccs1 [CBK289542] | 88.1819 | 
O=C(Nc1ccc(OC(=O)N2CCCCC2)cc1)N1CCCCC1 [CBK090060] | 57.9584 | 
Cc1nnsc1C(=O)N[C@H]1CCN2C(=O)N(CCCl)C(=O)[C@@H]2C1 [CBK289550] | 105.228 | 
CC(C)C(Nc1c([N+](=O)[O-])cc(C(F)(F)F)cc1[N+](=O)[O-])C(=O)O (centres unmarked) [CBK261041] | 95.8215 | 
Cc1ccc(Cn2nc(NC(=O)Oc3ccccc3)c3ccccc32)cc1 [CBK048407] | 119.111 | 
O=C(/C=C/c1ccc(N2N=N2)cc1)/C=C/c1ccc(N2N=N2)cc1 [CBK261638] | 97.7808 | 
CC1CN(C(=O)COc2ccccc2OC(=O)N(C)C)CC(C)O1 (centres unmarked) [CBK057627] | 34.0882 | 
CCC(=O)N(C[C@H]1CCC[C@@H]1N(C)C)c1ccc(Cl)c(Cl)c1 [CBK003408] | 84.0379 | 
Cc1c([N+](=O)[O-])c([N+](=O)[O-])nn1CC(=O)NCc1cccnc1 [CBK262428] | 109.919 | 
CN(C)C(=O)Oc1ccc2[nH]c3c(c2c1)CCNC31CCN(CCOc2ccccc2)C1 (centres unmarked) [CBK107679] | 92.2695 | 
S=C(Nc1ccc2nc3c4ccccc4c4ccccc4c3nc2c1)N1CCOCC1 [CBK263153] | 70.269 | 
O=C(O)Cn1cc(C(=O)c2cccs2)c2ccccc21 [CBK287110] | 95.5865 | 
O=C(O)c1cccc(NC(=O)c2cc([N+](=O)[O-])cc([N+](=O)[O-])c2)c1 [CBK261555] | 107.852 | 
O=C(NO)Nc1ccc(Cl)c(Cl)c1 [CBK016929] | 9.766 | 
CC(N)Cc1cn(C)c2ccccc12 (centres unmarked) [CBK012030C] | 19.7769 | 

SMILES | % of control remaining (total inclusion area) | % of control remaining
O=C(O)c1cc(NC(=O)c2ccc3c(c2)C(=O)N(Cc2ccco2)C3=O)cc(C(=O)O)c1 [CBK267374] | 135.449 | 
CS(=O)(=O)c1ccc(-c2ccc3c(c2)CCN(C2CCN(C(=O)Oc4ccccc4)CC2)C3)cc1 [CBK169518] | 66.2463 | 
O=C(NN=C1CCCCC1)C(O)(c1ccccc1)c1ccccc1 [CBK261783] | 107.444 | 
Cc1cccc(CNC(Cc2ccsc2)c2nccs2)n1 (centres unmarked) [CBK282697] | 113.435 | 
CONC(=O)c1nn(Cc2ccc(C)cc2)c2ccccc12 [CBK047848] | 42.6534 | 
O=P(O)(O)/C=C(\Cl)c1ccccc1 [CBK261019] | 71.9927 | 
O=C(N[C@H]1CCN2C(=O)N(CCCl)C(=O)[C@@H]2C1)c1ccncc1 [CBK289551] | 103.405 | 
CCCN(CCCc1ccccc1)C1Cc2cc(OC)c(OC)cc2C1 [CBK017596C] | 86.2942 | 
O=C(NC1CC1)c1nn(Cc2ccc(S(=O)(=O)N3CCCCC3)cc2)c2ccccc12 [CBK047820] | 96.5136 | 
COc1cc(C(=O)N2CCC(N3C(=O)Cc4ccccc43)CC2)ccc1C [CBK155465] | 66.3226 | 
CSc1nnc(C(N)Cc2c[nH]c3ccccc23)o1 (centres unmarked) [CBK269950C] | 97.9978 | 
CS(=O)(=O)c1ccc(-c2ccc3c(c2)OCCN(C2CCN(C(=O)Oc4ccccc4)CC2)C3)cc1 [CBK169259] | 92.126 | 
CN(C)[C@@H]1C[C@H](C2(c3ccccc3)OCCO2)CC[C@H]1N(C)C(=O)Cc1ccc(Cl)c(Cl)c1 [CBK016338] | 29.7984 | 
O=C(O)CCCNC(=O)C(O)(c1ccccc1)c1ccccc1 [CBK269156] | 100.279 | 
O=P(Nc1ccc(Cl)c(Cl)c1)(Nc1ccc(Cl)c(Cl)c1)Oc1ccc(Cl)cc1 [CBK263487] | 94.2998 | 
NC(=O)C(=O)c1cn(Cc2ccccc2)c2ccccc12 [CBK288473] | 46.1765 | 
COc1ccc([C@]23CC[C@H](NC(=O)Nc4ccc(C#N)c(Cl)c4)C[C@H]2N(C)CC3)cc1OC [CBK066928T] | 93.6436 | 
CNC(=O)Oc1ccc(C)cc1C(=O)N(C)C [CBK012319] | 89.2363 | 
O=[N+]([O-])c1ccc(-n2cnc3ccccc32)c([N+](=O)[O-])c1 [CBK261120] | 10.5554 | 
O=C(O)C1C2CCC(O2)C1C(=O)NC1CCCCC1 (centres unmarked) [CBK286848] | 77.6969 | 
Cc1cn(-c2ccc(OC(=O)NC(C)(C)C)c(Cl)c2)c(=O)n1C [CBK025991] | 52.2786 | 
O=C(O)CP(=O)(O)c1ccc(Cl)cc1 [CBK019291] | 96.8433 | 
COC(=O)c1nn(Cc2ccc(OC)cc2)c2ccccc12 [CBK093526] | 3.397 | 

SMILES | % of control remaining (total inclusion area) | % of control remaining
CC(N)c1cc2ccccc2o1 (centres unmarked) [CBK001492C] | 79.8998 | 
CN(C)[C@H]1CCC[C@@H]1C(=O)Nc1ccc(Cl)c(Cl)c1 [CBK003406] | 49.803 | 
CNC(=O)Oc1ccc(C2(C)SCCS2)cc1 [CBK023078] | 54.9106 | 
O=C(NNc1c(Cl)cccc1Cl)C(O)(c1ccccc1)c1ccccc1 [CBK262739] | 72.6297 | 
Clc1cccc(N2CCNCC2)n1 [CBK001379] | 95.708 | 
CCCCN1C(=O)C(O)(c2c(C)nn(CCC#N)c2N)c2ccccc21 (centres unmarked) [CBK306211] | 54.5997 | 
COc1ccc(CCn2nc(C(=O)O)c3ccccc32)cc1 [CBK093525] | 99.3841 | 
O=C(O)C(O)(c1ccccc1)c1cccs1 (centres unmarked) [CBK022808] | 106.752 | 
CCCN(CCc1cccnc1)C1Cc2cc(OC)c(OC)cc2C1 [CBK023935C] | 124.522 | 
COCCn1cc(C(=O)N2CCCC(CN(C)C)C2)c2ccccc21 (centres unmarked) [CBK281431] |  | 101.517
Cc1cccc(OP(=O)(O)Oc2cccc(C)c2C)c1C [CBK261316] | 109.788 | 
COc1cc(/C=N/O)ccc1Oc1ccc([N+](=O)[O-])cc1[N+](=O)[O-] [CBK261651] | 96.9801 | 
CC1CN(C(=O)Oc2ccccc2)C(C)CN1CCCC(c1ccc(F)cc1)c1ccc(F)cc1 (centres unmarked) [CBK024993C] | 36.6326 | 
CN(C)C(=O)OCCn1c(=O)oc2cc(Cl)ccc21 [CBK306455] | 60.2289 | 
O=C(O)c1nsnc1-c1cc([N+](=O)[O-])cc([N+](=O)[O-])c1O [CBK261584] |  | 96.4557
CCCCN1C(=O)C(O)(c2c(C)nn(CCO)c2N)c2ccccc21 (centres unmarked) [CBK304286] | 87.6401 | 
O=C(Nc1ccc(Cl)cc1)c1cccc(-n2cnnn2)c1 [CBK287791] |  | 112.746
CCN(CC)CCN(C)Cc1ccc2ccc3cccc4ccc1c2c34 [CBK261859] | 94.2496 | 
O=C(CC(c1ccccc1)c1c(O)c2ccccc2oc1=O)c1ccc(-c2ccc(Br)cc2)cc1 (centres unmarked) [CBK260877] |  | 97.4349
COc1cc(Cl)ccc1NC(=O)Oc1cccc2cnccc12 [CBK012882] | 107.274 | 
COc1cccc2c1OCCC2CNCCCc1ccccc1 (centres unmarked) [CBK007716] | 53.8099 | 
O=C(Nc1cc([N+](=O)[O-])ccc1O)c1cccc(C(=O)Nc2cc([N+](=O)[O-])ccc2O)c1 [CBK261168] | 104.42 | 
NC(=O)C1=CN([C@@H]2O[C@H](CO)[C@H](O)C2O)C2N=CN=C(N)C12 (some centres unmarked) [CBK201209] | 0.1944 | 

SMILES | % of control remaining (total inclusion area) | % of control remaining
CN(C)C(=O)c1ccc(Cn2nc(C(=O)Nc3nccs3)c3ccccc32)cc1 [CBK047701] | 73.1617 | 
Cc1cc(Cl)c(OC(=O)NC2CCCCC2)cc1C [CBK022948] | 62.6701 | 
Cc1ccc(OP(=O)(NCCN2CCOCC2)Oc2ccc(C)cc2)cc1 [CBK261802] | 114.485 | 
NC(=O)Cn1cc(C(=O)COc2ccccc2)c2ccccc21 [CBK267650] | 99.5618 | 
COC(=O)c1cccc2c3c(n(Cc4ccccc4)c12)CCCC3=O [CBK036304] | 52.4228 | 
N#CC(CCCN1CCC(O)(c2ccccc2)CC1)(c1ccccc1)c1ccccc1 [CBK002145] |  | 61.1385
Cn1cc(C(=O)NCc2ccccc2)c2ccccc21 [CBK200196] |  | 90.0407
CNC(=O)Oc1ccccc1/C=N/N(C)C [CBK023194] | 43.562 | 
C=CCSc1nnc(OC(=O)N(C)C)n1-c1ccc(Cl)cc1 [CBK004817] | 98.5839 | 
O=C(Cn1cc(C(=O)c2ccco2)c2ccccc21)NCCc1c[nH]c2ccccc12 [CBK267509] | 123.832 | 
CC(=O)Nc1ccc(OC(=O)N2CCCCC2)cc1 [CBK090124] | 70.9572 | 
CN(C(=O)c1ccc(Cl)c(Cl)c1)[C@H]1CCC[C@H]1N1CCCC1 [CBK003411C] | 0.7323 | 
O=C(N/N=C1/CN2CCC1CC2)c1cccc(O)c1 [CBK262188C] | 102.6 | 
CN(Cc1ccc(-c2ccc(S(C)(=O)=O)cc2)nc1)C1CCN(C(=O)Oc2ccc(F)cc2)CC1 [CBK166097] | 95.5897 | 
CC1=CC(C)C(COC(N)=O)(COC(N)=O)C(C)C1 (centres unmarked) [CBK020974] | 88.2997 | 
CC(C)NC(=O)Cn1cc(C(=O)COc2ccccc2)c2ccccc21 [CBK268317] | 109.015 | 
CC[C@H](N)Cn1nc(-c2cccs2)oc1=O [CBK282393] | 92.7768 | 
CNC(=O)Oc1cccc2cccnc12 [CBK015609] | 64.18 | 
Cc1ccc(Cl)c(OC(=O)NCCOC(=O)NO)c1 [CBK288417] | 99.755 | 
O=C(O)c1cc(N2C(=O)c3cccc4c([N+](=O)[O-])ccc(c34)C2=O)cc(N2C(=O)c3cccc4c([N+](=O)[O-])ccc(c34)C2=O)c1 [CBK262119] | 106.215 | 
O=C1CCCc2c1c1cccc(C(=O)O)c1n2Cc1ccccc1 [CBK002365] | 81.0671 | 
CN(C)C(=O)c1ccc(Cn2nc(C(=O)NC3CC3)c3ccccc32)cc1 [CBK047720] | 102.146 | 
O=C(Nc1ccc(NC(=O)c2cccc([N+](=O)[O-])c2)c(Cl)c1)c1cccc([N+](=O)[O-])c1 [CBK261196] | 101.174 | 
